{
  "source": "the supplement of paper PMC11417369",
  "note": "± gives the standard deviation of the averaged measurements. The list shows a part of the results.",
  "data": [
    {"tested_on": "PfAP2-EXP AP2 domain (GST-tagged)", "assay": "gcPBM binding intensity (ln(normalized median fluorescence intensity)); higher = stronger DNA binding", "procedure,_shortened": "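Plasmodium falciparum DNA-binding domains carrying a GST tag were expressed in E. coli and applied for 1 h, at about 25 μg on average, to an Agilent 4 × 180k array. The array held primer-extended double-stranded 36-bp intergenic genomic probes together with negative controls, and binding took place in 1× PBS with 1% milk, 0.2 mg/ml BSA, 0.5% salmon testes DNA and 0.03% Triton X-100. An Alexa488 anti-GST antibody detected bound protein, and the array was scanned at 488 nm. Binding intensity is taken as the highest Masliner-normalised natural-log median intensity across replicate spots of either probe orientation.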", "values": [
      {"sequence": "AAATTAGACTATAATACACACATAAAAAAAAAATCA [CACACA_site7672]", "gcPBM binding intensity (ln)": "8.59 ± 0.53"},
      {"sequence": "AATTGGGTAGGACATGCATGAGAAATTAATATTGCA [TGCATGCA_site356]", "gcPBM binding intensity (ln)": "9.3 ± 0.49"},
      {"sequence": "ATATATATATATATATGTACTAACCTTTTAAAATAT [XGTACX_site6488]", "gcPBM binding intensity (ln)": "10.1 ± 0.38"},
      {"sequence": "ATGTCAAACATTTGCACACAAAAAAATAAAAATTAA [CACACA_site692]", "gcPBM binding intensity (ln)": "8.46 ± 0.29"},
      {"sequence": "AATCAAAGCCCACATACACACACATATATATATATA [CACACA_site7987]", "gcPBM binding intensity (ln)": "10.1 ± 0.29"},
      {"sequence": "TATTACATTGTTGAATGTACTCATTTAAAATTTATA [XGTACX_site7987]", "gcPBM binding intensity (ln)": "8.34 ± 0.38"},
      {"sequence": "TTTTTTTTTTTTTGCACACACATAATAGGTACAAAT [CACACA_site3577]", "gcPBM binding intensity (ln)": "8.49 ± 0.35"},
      {"sequence": "CATATTTACTATCACACACACGATATATATAAATAT [CACACA_site1241]", "gcPBM binding intensity (ln)": "8.66 ± 0.46"},
      {"sequence": "TTTTTTTTTTTTTTCTCACACATTTAATGATAATAT [CACACA_site5513]", "gcPBM binding intensity (ln)": "8.52 ± 0.45"},
      {"sequence": "CTATTTTTATATTATTGTACGTTGTTATTATATATA [XGTACX_site1469]", "gcPBM binding intensity (ln)": "8.96 ± 0.45"},
      {"sequence": "CTAAGCTAAGTAAGCTGTACTTCACCTTTATACAGT [XGTACX_site3087]", "gcPBM binding intensity (ln)": "8.63 ± 0.33"},
      {"sequence": "TAATATTATTTAGAGTGTACTCATAAATCAACAAAA [XGTACX_site5269]", "gcPBM binding intensity (ln)": "8.35 ± 0.36"},
      {"sequence": "ATATAGAACACCTGTGCATGCAAGTGCTAAAAAATT [TGCATGCA_site213]", "gcPBM binding intensity (ln)": "10.175 ± 0.007"},
      {"sequence": "TTTATATTTATATATACACACATATACATCCTATTT [CACACA_site3079]", "gcPBM binding intensity (ln)": "8.54 ± 0.31"},
      {"sequence": "ATATATATGGAAACAGTGCAATACATATATATATAT", "gcPBM binding intensity (ln)": "10.1 ± 0.33"},
      {"sequence": "TTTTTCTTAAAAAATTGTACACATATATATATATAT [XGTACX_site542]", "gcPBM binding intensity (ln)": "10.3 ± 0.22"},
      {"sequence": "ATTAAGTTAAACATTACACACTATGTATTATTTATG [CACACA_site973]", "gcPBM binding intensity (ln)": "8.53 ± 0.43"},
      {"sequence": "TTTTTTTTTTTTAATACACACATATTTATATTTATT [CACACA_site7802]", "gcPBM binding intensity (ln)": "8.44 ± 0.3"},
      {"sequence": "ATATTTTTATTTAAACGTACATACACGTTGAAAAGA [XGTACX_site4567]", "gcPBM binding intensity (ln)": "8.46 ± 0.28"},
      {"sequence": "TGCTATATAATATGAGCACACATAAGATTTGGTGTT [CACACA_site8148]", "gcPBM binding intensity (ln)": "8.28 ± 0.4"},
      {"sequence": "AACTGTACAATTTTTGTGCACAATAATTATTAATAT [GTGCAC_site9462]", "gcPBM binding intensity (ln)": "9.04 ± 0.16"},
      {"sequence": "TTTTTCTTTTGATGTTGTACATATATATTATATATA [XGTACX_site2754]", "gcPBM binding intensity (ln)": "8.71 ± 0.46"},
      {"sequence": "TAATGCATTATTAGAATACACACCATACGCATATTT [CACACA_site289]", "gcPBM binding intensity (ln)": "8.61 ± 0.4"},
      {"sequence": "TGATGTTGTAACAAAAGTACACACACATTTCTATAA [XGTACX_site5837]", "gcPBM binding intensity (ln)": "8.24 ± 0.21"},
      {"sequence": "TTTTCAATTAATAATACACACATGTATATATCATTA [CACACA_site7539]", "gcPBM binding intensity (ln)": "8.3 ± 0.28"},
      {"sequence": "AAGAAAAAAAAAAAAAATATATATATAAGAACATAT [TGCATGCA_negctrl_site131]", "gcPBM binding intensity (ln)": "8.91 ± 1"},
      {"sequence": "GATAAAACGTTATGCACACGTACGTGGGTATTTATA [CACACA_site4954]", "gcPBM binding intensity (ln)": "8.85 ± 0.31"},
      {"sequence": "AATCTGATTTGTATATGTACACAAATATTTTTATTT [XGTACX_site5295]", "gcPBM binding intensity (ln)": "8.74 ± 0.41"},
      {"sequence": "AACTATAAAAAAAATACACACATTACCAAAAATATA [CACACA_site1529]", "gcPBM binding intensity (ln)": "8.61 ± 0.44"},
      {"sequence": "TATAAAAAAATATATATATATATATATATATAAATA [TGCATGCA_negctrl_site22]", "gcPBM binding intensity (ln)": "8.57 ± 0.12"},
      {"sequence": "TTTAATAATTATTAAAGTACAAAATAAATATTGAAT [XGTACX_site7538]", "gcPBM binding intensity (ln)": "8.79 ± 0.66"},
      {"sequence": "TTATGTAAAATCGATACATGCATTAATCATTTTATA [TGCATGCA_site493]", "gcPBM binding intensity (ln)": "8.45 ± 0.33"},
      {"sequence": "TATGATATGTTATACACACACGTATTTATGAATTGA [CACACA_site7591]", "gcPBM binding intensity (ln)": "8.54 ± 0.4"},
      {"sequence": "TCATATTTCCATAGGAGTACATAAAAAAAATAATAT [XGTACX_site7601]", "gcPBM binding intensity (ln)": "8.69 ± 0.36"},
      {"sequence": "ATTTATATTAATGGATAAATAAATGTGTACTTGATA [CACACA_negctrl_site24]", "gcPBM binding intensity (ln)": "8.345 ± 0.007"},
      {"sequence": "TTCTTTATTATATGCACACGTACATATAATATATAT [CACACA_site2018]", "gcPBM binding intensity (ln)": "8.815 ± 0.049"},
      {"sequence": "AAAAAAAAAAAACACACACACATATATATATATATA [CACACA_site732]", "gcPBM binding intensity (ln)": "10.2 ± 0.38"},
      {"sequence": "ATCAACAAAACATACACACACATATAGATTTATATA [CACACA_site7415]", "gcPBM binding intensity (ln)": "8.59 ± 0.42"},
      {"sequence": "AATTAGCTATTTAAAAATATATAAAATTTATATATA [CACACA_negctrl_site390]", "gcPBM binding intensity (ln)": "8.01 ± 0.39"},
      {"sequence": "ATCATATTGAATATTTAACACACATTTCGCTTAATT [CACACA_site8652]", "gcPBM binding intensity (ln)": "8.64 ± 0.47"},
      {"sequence": "GAAATAGAGAGACACACACACATATATTTATGTATT [CACACA_site7794]", "gcPBM binding intensity (ln)": "8.3 ± 0.45"},
      {"sequence": "AAAATGTAGAAATGGGTGCACACACATATATAATAT", "gcPBM binding intensity (ln)": "9.05 ± 0.12"},
      {"sequence": "TATATATATAAAAGTTGTACAGTGTTTTATATAGTT [XGTACX_site7085]", "gcPBM binding intensity (ln)": "8.925 ± 0.078"},
      {"sequence": "TATATATATATATATATATATATATATGTGTATGTA [TGCATGCA_negctrl_site255]", "gcPBM binding intensity (ln)": "10.1 ± 0.33"},
      {"sequence": "TATATATTTATTTATTGTACACTCTTTAAGAATACA [XGTACX_site2569]", "gcPBM binding intensity (ln)": "8.48 ± 0.22"},
      {"sequence": "GATTCGATCTATATATGTACACATAAATATTTTTTG [XGTACX_site7015]", "gcPBM binding intensity (ln)": "8.83 ± 0.31"},
      {"sequence": "AATAAAATTGACCATTCACACAAGAAAAATTAATCA [CACACA_site5636]", "gcPBM binding intensity (ln)": "8.37 ± 0.32"},
      {"sequence": "ATACACAAGAATATGTTGCACTTTTATATTCGTATG", "gcPBM binding intensity (ln)": "8.8 ± 0.34"},
      {"sequence": "GATATATAAATTGACACACACATATATACCTATATA [CACACA_site6689]", "gcPBM binding intensity (ln)": "8.53 ± 0.36"},
      {"sequence": "TTCTTTTTTTTTTTTTCATGTATATTAAACTTTTCA [TGCATGCA_negctrl_site592]", "gcPBM binding intensity (ln)": "8.49 ± 0.51"},
      {"sequence": "CATAAGATTTTTACATGTACATATTTATAATATATT [XGTACX_site6578]", "gcPBM binding intensity (ln)": "8.96 ± 0.4"},
      {"sequence": "AATATTTATATTAACTGTACAGAAAATATCTTTGCT [XGTACX_site8130]", "gcPBM binding intensity (ln)": "8.38 ± 0.36"},
      {"sequence": "TATGCCATGGCATAATGTACATAAGTGACCTCATAA [XGTACX_site1294]", "gcPBM binding intensity (ln)": "8.74 ± 0.49"},
      {"sequence": "AATATAAAAATGTTTACACACACACCGAAATATATT [CACACA_site8800]", "gcPBM binding intensity (ln)": "8.97 ± 0.36"},
      {"sequence": "ATATATTTAAAAAAATGTACAAATCATAAATGCAAG [XGTACX_site4230]", "gcPBM binding intensity (ln)": "8.78 ± 0.34"},
      {"sequence": "AAAAAATTATACCAGTGTACTTTTTTGGTTTTTCTT [XGTACX_site2601]", "gcPBM binding intensity (ln)": "8.51 ± 0.36"},
      {"sequence": "AGAAATTAAATGTAAGCACACATAAATTATACACAT [CACACA_site9098]", "gcPBM binding intensity (ln)": "8.56 ± 0.37"}
    ]}
  ]
}
